Reference: the BET-seq Pho4 binding data (Le et al. 2018)
Some of the results follow. These are noisy estimates, calculated here from bound and input reads.

Molecular target: T1, Pho4 (S. cerevisiae) (UniProt P07270)
T1 sequence: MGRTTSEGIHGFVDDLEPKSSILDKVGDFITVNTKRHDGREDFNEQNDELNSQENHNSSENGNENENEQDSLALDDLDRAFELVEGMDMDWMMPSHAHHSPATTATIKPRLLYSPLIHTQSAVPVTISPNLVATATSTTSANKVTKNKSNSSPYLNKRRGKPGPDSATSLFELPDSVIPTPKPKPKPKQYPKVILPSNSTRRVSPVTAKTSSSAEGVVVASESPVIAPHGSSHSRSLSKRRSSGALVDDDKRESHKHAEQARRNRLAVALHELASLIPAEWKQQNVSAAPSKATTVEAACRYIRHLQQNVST
Experiment: relative binding free energy (BET-seq); higher = weaker binding
Settings: reference: library average

Sequence	relative binding free energy
AGAGACACGTGGCGGT	-0.05 kcal/mol
TGTGGCACGTGGTAGT	-0.18 kcal/mol
GTAGTCACGTGGTATG	0.17 kcal/mol
ATAGTCACGTGCTTGA	0.12 kcal/mol
GGATGCACGTGCTTGA	0.04 kcal/mol
TTTGGCACGTGACAGA	0.11 kcal/mol
TAGTTCACGTGTTGAG	0.31 kcal/mol
TTTTTCACGTGGGCTA	0.23 kcal/mol
TGAGGCACGTGGGAGT	-0.22 kcal/mol
CTTGTCACGTGGTAAG	0.14 kcal/mol
TGGGGCACGTGTAAAC	0.14 kcal/mol
ATGATCACGTGGTGAT	-0.05 kcal/mol
GAATACACGTGGTGTT	0.1 kcal/mol
GGACGCACGTGTTTGG	0.03 kcal/mol
AATGTCACGTGGGTGC	-0.1 kcal/mol
GGGGTCACGTGGTAGC	0.1 kcal/mol
TCTATCACGTGCTAGT	0.25 kcal/mol
TTGGACACGTGTCGTA	0.13 kcal/mol
TCCGTCACGTGGTGTG	-0.09 kcal/mol
ACGGGCACGTGGGGGA	-0.13 kcal/mol
TTTGGCACGTGGAATT	-0.06 kcal/mol
GGGGGCACGTGCTGTC	-0.19 kcal/mol
TGATACACGTGGCTGG	-0.05 kcal/mol
CTAAGCACGTGTGTGT	-0.03 kcal/mol
TTTTACACGTGAGGGG	0.4 kcal/mol
TTTGTCACGTGAGACG	0.32 kcal/mol

Sequence	relative binding free energy
GGATCCACGTGGGGTG	-0.19 kcal/mol
ATTGACACGTGTATTG	0.04 kcal/mol
CGGGTCACGTGAGCTT	0.33 kcal/mol
TTGTTCACGTGCAGCT	0.18 kcal/mol
CGCGTCACGTGGTGTA	-0.04 kcal/mol
TAGTACACGTGGAGGG	0.12 kcal/mol
GGTAACACGTGGTGTA	-0.12 kcal/mol
GTGATCACGTGTAGGG	0.05 kcal/mol
TCTGTCACGTGCAGTG	0.14 kcal/mol
GAAGGCACGTGTGAAT	0.08 kcal/mol
TATGTCACGTGAGTAT	0.24 kcal/mol
GATGGCACGTGCGGAG	-0.06 kcal/mol
GTTACCACGTGTGGTA	0 kcal/mol
GCGTTCACGTGGGGGC	0.22 kcal/mol
CGGAACACGTGTGAGG	0.06 kcal/mol
TGAGCCACGTGGATTG	0.06 kcal/mol
TTCTGCACGTGGGTCA	-0.16 kcal/mol
AATTACACGTGACTTG	0.3 kcal/mol
TGCTTCACGTGAGGTG	0.35 kcal/mol
GATAGCACGTGTCGTG	-0.08 kcal/mol
TCTGACACGTGTTGTA	0.01 kcal/mol
CATGTCACGTGGTGAT	0.06 kcal/mol
TTTTTCACGTGCTCGA	0.26 kcal/mol
TTTGCCACGTGTAGAG	-0.11 kcal/mol
CGTTACACGTGGGAGG	0.07 kcal/mol
AAGGGCACGTGGTGTC	-0.11 kcal/mol

Sequence	relative binding free energy
TGCAACACGTGGAGGG	-0.2 kcal/mol
AGTAGCACGTGAGTAG	0.08 kcal/mol
TTGCGCACGTGGCATG	-0.26 kcal/mol
CGTGTCACGTGCGAGG	-0.05 kcal/mol
ACAGGCACGTGGATGT	-0.11 kcal/mol
TTAGTCACGTGTCGGT	0.05 kcal/mol
AGTGGCACGTGCGGTA	-0.32 kcal/mol
GATGGCACGTGGAGTT	0.04 kcal/mol
TAGGCCACGTGTTGGG	-0.01 kcal/mol
CTAGACACGTGTGGGT	0.14 kcal/mol
CTTTTCACGTGCGTAT	0.21 kcal/mol
GTGTACACGTGACTTT	0.22 kcal/mol
AGGAGCACGTGGGGTT	-0.24 kcal/mol
TGCGTCACGTGTTTAG	0.03 kcal/mol
GTGCGCACGTGGTGTC	-0.24 kcal/mol
GGTAGCACGTGTAAAA	0.15 kcal/mol
TTTCACACGTGTGCGT	0.05 kcal/mol
ATAGTCACGTGAAGTT	0.32 kcal/mol
TATGTCACGTGTTAAG	0.12 kcal/mol
GATAGCACGTGTAAGG	0.03 kcal/mol
AAACTCACGTGGTAGG	0.2 kcal/mol
TAGCGCACGTGGAGAT	0.03 kcal/mol
GTATACACGTGGTTTA	-0.14 kcal/mol
TGTAGCACGTGGAAAG	0.03 kcal/mol
TTTAACACGTGACGGG	0.12 kcal/mol
ATTGACACGTGGCAGG	-0.12 kcal/mol

Sequence	relative binding free energy
GTATACACGTGTGTCT	0 kcal/mol
TGGGGCACGTGCGCAT	-0.19 kcal/mol
GGTTACACGTGATACG	0.24 kcal/mol
GTAGGCACGTGAACTT	0.24 kcal/mol
TTCGGCACGTGCGTTG	0.03 kcal/mol
GTATGCACGTGCCGGT	-0.17 kcal/mol
GTTTGCACGTGTAGTT	0.05 kcal/mol
TGAGCCACGTGTTTTT	-0.03 kcal/mol
CGTATCACGTGGCGTT	0.05 kcal/mol
TGGCTCACGTGTGATA	0.24 kcal/mol
TGTTTCACGTGCGTGA	0.18 kcal/mol
TGCGTCACGTGTGCTG	0.07 kcal/mol
GAGTGCACGTGTTGAT	-0.07 kcal/mol
ACGTGCACGTGTGGAT	0 kcal/mol
CTTTTCACGTGAATAT	0.41 kcal/mol
GGTGTCACGTGGGAAT	0.23 kcal/mol
TTGCTCACGTGTAATT	0.24 kcal/mol
GGTTACACGTGTATCT	0.12 kcal/mol
ATTATCACGTGGGTGG	-0.02 kcal/mol
TGGATCACGTGTGGTA	0.22 kcal/mol
TGGTTCACGTGTGTCA	0.15 kcal/mol
CGTTACACGTGTCGTG	0.09 kcal/mol
ATGTACACGTGATTGT	0.06 kcal/mol
TGTTTCACGTGTTGGT	0.24 kcal/mol
CTGTCCACGTGTTTTG	0.04 kcal/mol
TATAGCACGTGGTCTT	-0.13 kcal/mol

Sequence	relative binding free energy
TGCTTCACGTGGGCGT	0.13 kcal/mol
CTGGCCACGTGGGGCT	-0.27 kcal/mol
TATAACACGTGGTGCT	-0.07 kcal/mol
GATGCCACGTGGGATG	0.05 kcal/mol
AGGAACACGTGGTAGG	-0.04 kcal/mol
TAGTTCACGTGCTTTA	0.2 kcal/mol
GGACTCACGTGTTGGA	0.25 kcal/mol
TTTAGCACGTGATGTA	0.05 kcal/mol
TGGGTCACGTGTTCGT	0.12 kcal/mol
AAGGACACGTGGTGAG	0.19 kcal/mol
GTTATCACGTGGGTTT	0.13 kcal/mol
CTTTGCACGTGGTTAG	-0.05 kcal/mol
CATGGCACGTGTATTG	-0.07 kcal/mol
AGGGGCACGTGGCGAA	-0.16 kcal/mol
GAGCGCACGTGGTGAG	-0.04 kcal/mol
ATCAGCACGTGAAGGG	0.16 kcal/mol
ACGATCACGTGTGGGC	0.25 kcal/mol
ATGCGCACGTGTCAGT	0.03 kcal/mol
AGCGTCACGTGGGCGT	-0.26 kcal/mol
GGTAGCACGTGTTACG	0.06 kcal/mol
AAGGTCACGTGGGGAC	-0.01 kcal/mol
GTAGACACGTGCTGGT	-0.04 kcal/mol
ATCAGCACGTGGTGCG	-0.14 kcal/mol
GGTAGCACGTGAGTGA	0.14 kcal/mol
GTTAGCACGTGAATTG	0.25 kcal/mol
TTAGACACGTGTTGGC	0.16 kcal/mol

Sequence	relative binding free energy
TGTCACACGTGTTGTT	0 kcal/mol
ACAGTCACGTGTTTGT	-0.01 kcal/mol
CGTTTCACGTGTCGGA	0.28 kcal/mol
ATTGTCACGTGCGGTA	0.01 kcal/mol
TTTGCCACGTGTTAGA	-0.06 kcal/mol
GTGGTCACGTGCATTG	0.14 kcal/mol
TCATTCACGTGGTTGG	0.28 kcal/mol
CGCGTCACGTGGTATG	0.02 kcal/mol
TCGTTCACGTGGTAGC	0.32 kcal/mol
TATGACACGTGAGGGT	0.18 kcal/mol
GCTAGCACGTGTGTTG	0.06 kcal/mol
GGACACACGTGGGTGG	-0.1 kcal/mol
CGGTGCACGTGTTAAT	-0.03 kcal/mol
GTGTACACGTGAAGAT	0.15 kcal/mol
TGCGGCACGTGTCGGA	-0.18 kcal/mol
TTAAGCACGTGGTACT	-0.15 kcal/mol
CGTGACACGTGCTGGT	-0.1 kcal/mol
TTAGCCACGTGAGGGA	0.16 kcal/mol
GTTTGCACGTGGGTCG	-0.13 kcal/mol
GTCAGCACGTGAGGCG	0.18 kcal/mol
AGGTCCACGTGCGTTG	-0.07 kcal/mol
AAGTACACGTGATTGG	0.12 kcal/mol
TGCTTCACGTGTAAGG	0.21 kcal/mol
GGTTTCACGTGAGGGA	0.34 kcal/mol
GTATTCACGTGCGGGA	0.29 kcal/mol
TGGCTCACGTGATGAT	0.33 kcal/mol

Sequence	relative binding free energy
GGGTCCACGTGGGTAT	-0.08 kcal/mol
TGTATCACGTGATAAT	0.27 kcal/mol
TTTTGCACGTGTGTAT	0.01 kcal/mol
TGGTGCACGTGCTATG	0 kcal/mol
TTAGACACGTGTGATG	0.1 kcal/mol
GGTTACACGTGGTCTT	0.2 kcal/mol
ATAGACACGTGTTCGT	0.02 kcal/mol
ATCTGCACGTGTTTGA	-0.05 kcal/mol
TATAGCACGTGTTGGT	-0.04 kcal/mol
CGGGGCACGTGACGGT	-0.02 kcal/mol
GTGTACACGTGCCGTG	0.03 kcal/mol
TTATTCACGTGCGGAG	0.11 kcal/mol
GTTTGCACGTGGAGTG	0.02 kcal/mol
GAAAGCACGTGATGTA	0.14 kcal/mol
GTTGGCACGTGCGGCC	0 kcal/mol
GACTGCACGTGAGGGG	0.23 kcal/mol
TTGGGCACGTGTGTCG	-0.03 kcal/mol
TCTGTCACGTGGGTCT	-0.05 kcal/mol
TTTCACACGTGTGGAG	0.18 kcal/mol
CATATCACGTGCTGGT	0.16 kcal/mol
GGGCTCACGTGAGCGT	0.3 kcal/mol
ATTGGCACGTGCGGGG	-0.18 kcal/mol
CTTAGCACGTGATGGT	0.04 kcal/mol
TTATACACGTGGTGGG	0.01 kcal/mol
GTAATCACGTGTGGTT	0.26 kcal/mol
TGCGTCACGTGGAATT	0.19 kcal/mol

Sequence	relative binding free energy
TGTTTCACGTGCGCGA	0.32 kcal/mol
AATGTCACGTGGAGCT	0.11 kcal/mol
TTGGCCACGTGTTGGG	-0.04 kcal/mol
TTTGACACGTGTCTTG	-0.06 kcal/mol
ATTTACACGTGTGACG	0.18 kcal/mol
TAGGGCACGTGGTTTT	-0.14 kcal/mol
TTTTACACGTGTAGGA	-0.06 kcal/mol
TGTGACACGTGTACGG	0.13 kcal/mol
AGTTACACGTGTCAGT	0.08 kcal/mol
CGCGTCACGTGTCGGG	0.19 kcal/mol
GGGCACACGTGGGCGT	-0.14 kcal/mol
CTGGGCACGTGCATTG	-0.1 kcal/mol
GACATCACGTGGGGTT	-0.01 kcal/mol
TGTGGCACGTGTCGAT	-0.02 kcal/mol
TTTAGCACGTGCCGGT	-0.04 kcal/mol
ATCGGCACGTGGAGTT	-0.08 kcal/mol
TCGGTCACGTGGGTGT	-0.07 kcal/mol
GGGGCCACGTGGAATG	-0.01 kcal/mol
GGCGGCACGTGCGGGG	-0.22 kcal/mol
GCTTACACGTGGGAGG	0.09 kcal/mol
TGTTACACGTGTAAAG	0.21 kcal/mol
ACCTTCACGTGGTGGG	0.2 kcal/mol
TTCTACACGTGGATTT	0.17 kcal/mol
GTTAGCACGTGGGTAT	-0.21 kcal/mol
TCTGACACGTGGGTAT	-0.2 kcal/mol
TGGCACACGTGTTTTG	0.05 kcal/mol

Sequence	relative binding free energy
GTCGTCACGTGCGGAG	0.06 kcal/mol
TTAGTCACGTGGGGTG	0 kcal/mol
TTTTGCACGTGGTCAG	-0.09 kcal/mol
GGGGTCACGTGGGGGG	0.08 kcal/mol
TTGAGCACGTGGTCGA	-0.18 kcal/mol
CATTGCACGTGTTGTA	0.05 kcal/mol
AGATGCACGTGTGAAT	0.21 kcal/mol
TATGTCACGTGAACGT	0.26 kcal/mol
TTCTTCACGTGATAGT	0.19 kcal/mol
TGTGACACGTGTAAGG	0.19 kcal/mol
CGTATCACGTGTTTTA	0.03 kcal/mol
TGCGGCACGTGTATTT	-0.07 kcal/mol
TGGGGCACGTGATTGA	-0.02 kcal/mol
TGTTTCACGTGCGGAG	0.12 kcal/mol
GTGCTCACGTGTTGTC	0.3 kcal/mol
GTGCGCACGTGAGCGG	0.11 kcal/mol
TTAGACACGTGTCGGT	-0.08 kcal/mol
TAGGACACGTGAAGGG	0.25 kcal/mol
TGCTTCACGTGGATAT	0.33 kcal/mol
TAATTCACGTGGTCGT	0.24 kcal/mol
TACGTCACGTGGTGGT	0.03 kcal/mol
TAGGGCACGTGATTCT	-0.02 kcal/mol
